According to the supplement of paper PMC3334620:
Whole data set: some 33,000 sequences, median “E-score (-0.5 to 0.5)” near -0.012, cut for the highest 2% near 0.29. This is one part of the list.

Target: T1, Ybr033w (UniProt P38073)
T1 sequence: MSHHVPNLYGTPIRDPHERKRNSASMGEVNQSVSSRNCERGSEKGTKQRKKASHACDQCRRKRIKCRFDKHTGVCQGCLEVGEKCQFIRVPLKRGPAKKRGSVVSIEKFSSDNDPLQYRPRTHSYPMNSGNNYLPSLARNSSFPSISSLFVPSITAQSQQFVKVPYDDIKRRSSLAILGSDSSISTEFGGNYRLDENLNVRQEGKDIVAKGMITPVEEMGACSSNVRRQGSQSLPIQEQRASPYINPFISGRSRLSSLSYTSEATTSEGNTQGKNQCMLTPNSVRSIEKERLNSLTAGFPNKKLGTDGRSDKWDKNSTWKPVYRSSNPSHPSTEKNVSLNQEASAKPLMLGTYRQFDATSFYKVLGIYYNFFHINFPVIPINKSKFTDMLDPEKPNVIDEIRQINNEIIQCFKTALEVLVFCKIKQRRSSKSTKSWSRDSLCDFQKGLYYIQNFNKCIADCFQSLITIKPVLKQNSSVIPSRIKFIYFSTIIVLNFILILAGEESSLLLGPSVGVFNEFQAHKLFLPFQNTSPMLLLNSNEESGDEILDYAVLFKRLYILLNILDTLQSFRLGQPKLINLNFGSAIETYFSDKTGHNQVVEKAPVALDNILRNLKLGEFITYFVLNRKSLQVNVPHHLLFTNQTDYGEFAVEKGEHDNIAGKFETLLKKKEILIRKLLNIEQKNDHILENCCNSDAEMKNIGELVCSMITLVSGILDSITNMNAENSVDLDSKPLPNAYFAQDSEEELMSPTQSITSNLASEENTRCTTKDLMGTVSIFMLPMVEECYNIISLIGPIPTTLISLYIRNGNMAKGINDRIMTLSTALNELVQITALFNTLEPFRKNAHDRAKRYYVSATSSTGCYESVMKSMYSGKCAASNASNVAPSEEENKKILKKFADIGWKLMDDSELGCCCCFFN
Assay: PBM E-score (8-mer binding enrichment) (E-score (-0.5 to 0.5)); higher = stronger / more preferred TF binding; most listed sequences are background and not binding sites
Conditions: protein concentration: 200 nM; construct: GST-full length
Outline: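 Universal all-10-mer Agilent arrays, fresh or stripped once, were converted to double-stranded form by primer extension. GST-tagged yeast transcription factors from PURExpress in vitro transcription/translation, full-length or DNA-binding domain only, were applied at about 100-200 nM and detected with fluorescent anti-GST. After masliner normalisation, the Universal PBM Analysis Suite scored each ungapped eight-base word together with its reverse complement by E-score.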

Sequence | PBM E-score
AGAGCGAC | -0.081
AGATGACG | -0.0606
GAGTTGCC | 0.0173
ACCCTTGA | -0.096
ACAGTGTA | 0.00123
ACAATGCG | 0.106
TAAAGTGA | 0.259
ACTCCAAG | 0.0778
ACGGTAAA | 0.149
CATATTTA | 0.28
GCCCTAGC | -0.162
GCGGTCAA | -0.197
CCGCGGTC | -0.176
AAGATAAT | 0.307
GTCTAGCA | 0.13
TTTGCAAA | -0.0644
TCACGTCA | -0.0404
GAAGTGCA | -0.0645
AGTGGGGC | -0.271
TACAAGTA | 0.19
GCACCGGC | -0.193
AGGGCGTA | -0.0274

Sequence | PBM E-score
ATCCTACG | 0.00923
CGTGCCGA | -0.135
ATAATCCA | 0.327
ATAGGGAG | -0.219
CCCACTTC | -0.0842
ATATCCAG | 0.0896
GGGTACGA | -0.146
ATCTACAT | 0.152
TAAACATA | 0.196
AAACATAA | 0.248
CCGGTCGA | -0.23
ATTTGTTG | 0.198
AGGCAAAG | -0.123
AATGGAGA | 0.0527
ACTAGTCT | -0.0233
CGGTAGGA | -0.0716
GCCGCCGA | -0.0374
ATTCACGA | 0.141
AGGGATAA | 0.204
GACCCTGC | -0.192
CGGTTAGC | -0.147
GGGACAAC | -0.157

Sequence | PBM E-score
CGTTAATA | 0.166
ATTAAGTA | 0.365
GGGAAAAC | 0.0792
GCCGGCCC | -0.266
GACTGTCC | -0.322
CAAGCTTA | 0.0492
TATGACAA | 0.167
CAATCAGG | 0.0432
ATTGCAAA | 0.258
CGTAAGTC | 0.0179
ACCATTCG | -0.0883
CTTTAAAA | 0.2
AATCTGAG | 0.0159
ACGGTCTG | -0.0461
CAATACGA | 0.141
GAGTATAC | 0.0107
GTGCCCAA | -0.112
GCCTTGCC | -0.157
CAGCTACA | 0.0259
GACTAAGC | -0.0518
TCTGTTAA | 0.0426
AGCACGCA | -0.0508

Sequence | PBM E-score
ACATGAGA | 0.183
ATTAGAAC | 0.168
AAACCCCT | -0.371
ACGGGTTG | -0.177
GGTAAGCA | -0.0606
ATGGGCGC | -0.203
CCGAAGTC | -0.0348
CTACGCCA | -0.0185
GCACACCC | -0.263
ACTACGCT | -0.0504
TCAGGGCA | -0.0793
TGCATCCA | -0.0886
CTGTTATA | 0.0916
AAGCTATT | 0.00398
ACGACGAG | -0.147
GATTGTAA | 0.156
CAACTTAG | 0.146
AAACGGAG | -0.0435
GATGTTCA | -0.079
ACAAGTTG | -0.0208
